Results from patent US8722849B2, “Polypeptides” (Novo Nordisk A/S, priority 2011, dated 2014).
The name of at least one read-out is uncertain. Starred links: 1 amine or outer side, 2 acyl side, 3 side chain; linkers in the order of their positions; H or OH if unused. Positions of bridges follow the written chain, without caps; N, C: chain ends. Residues, ends and D or L forms follow the SMILES beside them. Groups on a side chain read outwards from the residue. *: point of attachment. C20 diacid = O=C(O)CCCCCCCCCCCCCCCCCCC(=O)*; γGlu = O=C(O)[C@H](CCC(=O)[*:2])N[*:1]

test: Assay (III) ThT fibrillation assay for physical stability; format: physicochemical; conditions: ThT fibrillation assay
Summary of the method: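 Freshly prepared formulations, pH-adjusted, with 1 μM ThT; four or eight replicates incubated at 37 °C under 960 rpm orbital shaking. Fluorescence (ex 444/em 485 nm) read every 20 min; […]. Peptide concentration measured by RP-HPLC before and after the run.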

Row | SMILES | ThT pH 4.0 recovery [%] | ThT pH 4.0 recovery (%)
1 | CC[C@H](C)[C@H](NC(=O)[C@@H]1CCCN1C(=O)CNC(=O)[C@H](Cc1ccccc1)NC(=O)[C@H](CC(N)=O)NC(=O)[C@H](CC(N)=O)NC(=O)[C@H](CO)NC(=O)[C@H](CO)NC(=O)[C@H](Cc1c[nH]cn1)NC(=O)[C@H](CCCNC(=N)N)NC(=O)[C@H](CC(C)C)NC(=O)[C@H](Cc1ccccc1)NC(=O)[C@H](CCC(=O)O)NC(=O)[C@H](C)NC(=O)[C@H](CC(C)C)NC(=O)[C@H](CCCNC(=N)N)NC(=O)[C@H](CCC(N)=O)NC(=O)[C@@H](NC(=O)[C@H](C)NC(=O)[C@@H]1CSSC[C@H](NC(=O)CNC(=O)CC[C@H](NC(=O)CCCCCCCCCCCCCCCCCCC(=O)O)C(=O)O)C(=O)N[C@@H](CC(N)=O)C(=O)N[C@@H]([C@@H](C)O)C(=O)N[C@@H](C)C(=O)N[C@@H]([C@@H](C)O)C(=O)N1)[C@@H](C)O)C(=O)N[C@@H](CC(C)C)C(=O)N1CCC[C@H]1C(=O)N1CCC[C@H]1C(=O)N[C@H](C(=O)N[C@@H](CC(N)=O)C(=O)N[C@H](C(=O)NCC(=O)N[C@@H](CO)C(=O)N[C@@H](CC(N)=O)C(=O)N[C@H](C(=O)N1CCC[C@H]1C(N)=O)[C@@H](C)O)C(C)C)[C@@H](C)O [Example 88, N-alpha-[(S)-4-Carboxy-4-(19-carboxynonadecanoylamino)butyryl]-[Gly1,Glu14,Arg17,Pro37]-pramlintide] ({C20 diacid-γGlu}-GCNTATCATQRLAEFLRHSSNNFGPILPPTNVGSNTP-NH2; disulfide 2-7 (inferred); C-terminus assumed) | 87 | 87
2 | CC[C@H](C)[C@H](NC(=O)[C@@H]1CCCN1C(=O)CNC(=O)[C@H](Cc1ccccc1)NC(=O)[C@H](CC(N)=O)NC(=O)[C@H](CC(N)=O)NC(=O)[C@H](CO)NC(=O)[C@H](CO)NC(=O)[C@H](Cc1c[nH]cn1)NC(=O)[C@H](Cc1c[nH]cn1)NC(=O)[C@H](CC(C)C)NC(=O)[C@H](Cc1ccccc1)NC(=O)[C@H](CCC(=O)O)NC(=O)[C@H](C)NC(=O)[C@H](CC(C)C)NC(=O)[C@H](CCCNC(=N)N)NC(=O)[C@H](CCC(N)=O)NC(=O)[C@@H](NC(=O)[C@H](C)NC(=O)[C@@H]1CSSC[C@H](NC(=O)[C@H](CO)NC(=O)CC[C@H](NC(=O)CCCCCCCCCCCCCCCCCCC(=O)O)C(=O)O)C(=O)N[C@@H](CC(N)=O)C(=O)N[C@@H]([C@@H](C)O)C(=O)N[C@@H](C)C(=O)N[C@@H]([C@@H](C)O)C(=O)N1)[C@@H](C)O)C(=O)N[C@@H](CC(C)C)C(=O)N1CCC[C@H]1C(=O)N1CCC[C@H]1C(=O)N[C@H](C(=O)N[C@@H](CC(N)=O)C(=O)N[C@H](C(=O)NCC(=O)N[C@@H](CO)C(=O)N[C@@H](Cc1c[nH]cn1)C(=O)N[C@H](C(=O)N[C@@H](Cc1ccc(O)cc1)C(N)=O)[C@@H](C)O)C(C)C)[C@@H](C)O [Example 107, N-alpha-[(S)-4-Carboxy-4-(19-carboxynonadecanoylamino)butyryl]-[Ser1,Glu14,His17,His35]-pramlintide] ({C20 diacid-γGlu}-SCNTATCATQRLAEFLHHSSNNFGPILPPTNVGSHTY-NH2; disulfide 2-7) |  | 24
3 | CC[C@H](C)[C@H](NC(=O)[C@@H]1CCCN1C(=O)CNC(=O)[C@H](Cc1ccccc1)NC(=O)[C@H](CO)NC(=O)[C@H](CO)NC(=O)[C@H](CO)NC(=O)[C@H](CO)NC(=O)[C@H](CCCNC(=N)N)NC(=O)[C@@H](NC(=O)[C@H](CC(C)C)NC(=O)[C@H](Cc1ccccc1)NC(=O)[C@H](CCC(=O)O)NC(=O)[C@H](C)NC(=O)[C@H](CC(C)C)NC(=O)[C@H](CCCNC(=N)N)NC(=O)[C@H](CCC(N)=O)NC(=O)[C@@H](NC(=O)[C@H](C)NC(=O)[C@@H]1CSSC[C@H](NC(=O)[C@H](CCCCN)NC(=O)CC[C@H](NC(=O)CCCCCCCCCCCCCCCCCCC(=O)O)C(=O)O)C(=O)N[C@@H](CC(N)=O)C(=O)N[C@@H]([C@@H](C)O)C(=O)N[C@@H](C)C(=O)N[C@@H]([C@@H](C)O)C(=O)N1)[C@@H](C)O)C(C)C)C(=O)N[C@@H](CC(C)C)C(=O)N[C@@H](CO)C(=O)N[C@@H](CO)C(=O)N[C@H](C(=O)N[C@@H](CC(=O)O)C(=O)N[C@H](C(=O)NCC(=O)N[C@@H](CO)C(=O)N[C@@H](CC(=O)O)C(=O)N[C@H](C(=O)N1CCC[C@H]1C(N)=O)[C@@H](C)O)C(C)C)[C@@H](C)O [Example 170, N-alpha-[(S)-4-Carboxy-4-(19-carboxynonadecanoylamino)butyryl]-[Glu14,Arg18,Ser21,Ser22,Ser28,Ser29,Asp31,Asp35,Pro37]-pramlintide] ({C20 diacid-γGlu}-KCNTATCATQRLAEFLVRSSSSFGPILSSTDVGSDTP-NH2; disulfide 2-7 (inferred)) | 94 | 94
4 | CC[C@H](C)[C@H](NC(=O)[C@@H]1CCCN1C(=O)CNC(=O)[C@H](Cc1ccccc1)NC(=O)[C@H](CC(N)=O)NC(=O)[C@H](CC(N)=O)NC(=O)[C@H](CO)NC(=O)[C@H](CO)NC(=O)[C@H](Cc1c[nH]cn1)NC(=O)[C@H](Cc1c[nH]cn1)NC(=O)[C@H](CC(C)C)NC(=O)[C@H](Cc1ccccc1)NC(=O)[C@H](CCC(=O)O)NC(=O)[C@H](C)NC(=O)[C@H](CC(C)C)NC(=O)[C@H](CCCNC(=N)N)NC(=O)[C@H](CCC(N)=O)NC(=O)[C@@H](NC(=O)[C@H](C)NC(=O)[C@@H]1CSSC[C@H](NC(=O)[C@@H](N)CCCCNC(=O)CC[C@H](NC(=O)CCCCCCCCCCCCCCCCCCC(=O)O)C(=O)O)C(=O)N[C@@H](CC(N)=O)C(=O)N[C@@H]([C@@H](C)O)C(=O)N[C@@H](C)C(=O)N[C@@H]([C@@H](C)O)C(=O)N1)[C@@H](C)O)C(=O)N[C@@H](CC(C)C)C(=O)N1CCC[C@H]1C(=O)N1CCC[C@H]1C(=O)N[C@H](C(=O)N[C@@H](CC(N)=O)C(=O)N[C@H](C(=O)NCC(=O)N[C@@H](CO)C(=O)N[C@@H](Cc1c[nH]cn1)C(=O)N[C@H](C(=O)N[C@@H](Cc1ccc(O)cc1)C(N)=O)[C@@H](C)O)C(C)C)[C@@H](C)O [Example 87, N-epsilon1-[(S)-4-Carboxy-4-(19-carboxynonadecanoylamino)butyryl]-[Glu14,His17,His35]-pramlintide] (H-K([γGlu-C20 diacid])CNTATCATQRLAEFLHHSSNNFGPILPPTNVGSHTY-NH2; disulfide 2-7 (inferred)) | 85 | 85
